# Measured values as given in publication PMC12136788.
# The list shows a part of the results.
# B1: chr14:76904430:76904431:+_ENSMUSG00000022010_ENSMUST00000022587|mus_mus|mus_mus_mus_hu_True|38_38 (ssRNA)
# RNA: GGGAGUUCUACAGUCCGACGAUCUGCAGCCAAAAACACCCUCGUGGAAAAAAAGAGGGAACACCAGCAGCCUUGUAUAAGCUAGAUAAAAUCUUCUAGCUGUCUGCAGCCCAGGGAGAAACAGAAAACGGCAGCCCUAAUUUACAACAGAGGAUUGAGCAUCA
# B2: chr9:72466633:72466634:+_ENSMUSG00000037674_ENSMUST00000093820|mus_hu|FALSE|FALSE (ssRNA)
# RNA: GGGAGUUCUACAGUCCGACGAUCCUGAUAAGACUGUCCAGGCACAGCAAAAGCAUGAGGUUUCCUGAAACGGUCUUCCACUAGUUCCUGAUAGCUUGGGAGAAUACCAUGGCCAGAAACUGAUGAAUUACCAACCCCACUAUACAACAGAGGAUUGAGCAUCA
# B3: chr14:45754706:45754707:-_ENSMUSG00000021830_ENSMUST00000139526|mus_mus|motif|central (ssRNA)
# RNA: GGGAGUUCUACAGUCCGACGAUCGUAACUAGACGGAAGAUAUGCAGAUCCCACUGUGCUACAGGCUACUACAAGGUUGCGGAUUAUGCAACCUUGGUGACUAAUGACAUUAAAAGAAAGACAAUUCUUUGAUGGAGGAUCCAUCAACAGAGGAUUGAGCAUCA
# B4: chr10:33190432:33190433:-_ENSG00000150093_ENST00000302278|hu_mus|hu_hu_hu_mus_True|1_78 (ssRNA)
# RNA: GGGAGUUCUACAGUCCGACGAUCUACAUUUUCCAAACCUGCAUGUGAAUAAAACCCUGGCAAUAUUGCCCCAAAACUACCCUACUGUGACUAAGAUGCUGCUGCUGUGAGCUUGGUGUUGCAAAAUCCGCCUGAGUCAGUACUCAACAGAGGAUUGAGCAUCA
# B5: 176756163_176763977_1184_CDS_ENSG00000177565_ENST00000430069|human|control|control (ssRNA)
# RNA: GGGAGUUCUACAGUCCGACGAUCAUCUGUACUACAAGAAGCAAAGGUGUUGUUGCUCUGCCAAUCAACAUCCAAUGCUGGUGCUGAAUGAAAAGGAAACUGUUGCUUGGCUUCACCAGUAUGUGCGUCCCAAAUAAUUGUAGUCAACAGAGGAUUGAGCAUCA
# B6: chr2:47635579:47635580:+_ENSG00000095002_ENST00000543555|hu_hu|FALSE|FALSE (ssRNA)
# RNA: GGGAGUUCUACAGUCCGACGAUCACUCUAUACUGACGAACCAGAAGAAGAUCUUUUACAAAAGAUUCAAAAUUCAUUUUACUAAGCACAACACUCUGCAGAUUCUUUGCUCCUGCCGGCCCCAUGUACUUGAUCACCCCCUGGCAACAGAGGAUUGAGCAUCA
# Biological target: T1, UNK ZnF1-3 (human, UniProt Q9C0B0 31-174)
# T1 sequence: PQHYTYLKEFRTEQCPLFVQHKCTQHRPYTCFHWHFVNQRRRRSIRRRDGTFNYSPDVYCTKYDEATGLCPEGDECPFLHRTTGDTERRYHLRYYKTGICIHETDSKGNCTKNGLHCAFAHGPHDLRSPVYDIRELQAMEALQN
# Assay: nsRBNS (natural sequence RNA bind-n-seq); RBNS binding buffer (assumed for nsRBNS): 25 mM Tris pH 7.5, 150 mM KCl, 3 mM MgCl2, 0.01% Triton X-100, 500 ug/ml BSA, 20 U/ml SUPERase-In, 4 C; UNK is unkempt and MSI1 is Musashi-1; names of the RNAs are library labels; protein concentration not given here; high values mean tight binding
row,Binder,binding signal
1,B1,2.8 enrichment R
2,B2,0.925 enrichment R
3,B3,0.906 enrichment R
4,B4,1.13 enrichment R
5,B5,0.939 enrichment R
6,B6,1.54 enrichment R
